The source of these data is the antibiotic and cytotoxicity screens of Wong et al. (2023).

Structures are written as SMILES. The list shows a part of the results.

One assay relates to HSkMC. The assay can be described thus: cytotoxicity call (relative viability < 0.9). Particulars: 10 µM.
The test system of the next assay is HepG2. Description: cytotoxicity call (relative viability < 0.9). Particulars: 10 µM.
The subject of another assay is S. aureus RN4220. The assay can be described thus: growth inhibition call (relative growth <= 0.2). Conditions: 50 µM.

Turning to `C[C@H](CO)N1C[C@H](C)[C@@H](CN(C)CC2CCCCC2)Oc2c(NC(=O)Cc3cn(C)c4ccccc34)cccc2C1=O`, the cytotoxicity call in the assay with HSkMC and in the assay with HepG2 was “inactive” throughout. In the assay with S. aureus RN4220, the growth inhibition call is “inactive”.
On to `O=C(C[C@@H]1CC[C@@H]2[C@H](COC[C@@H](O)CN2C(=O)c2ccccc2)O1)NCCCN1CCOCC1`, for which the cytotoxicity call in the assay on HSkMC and with HepG2 was “inactive” in each case. In addition, in the assay with S. aureus RN4220, the growth inhibition call is “inactive”.
For `O=C(C[C@@H]1CC[C@@H]2[C@H](COC[C@@H](O)CN2S(=O)(=O)c2ccccc2Cl)O1)NCCc1ccncc1`, the cytotoxicity call in the assay with HSkMC and with HepG2 was “inactive” in each case. In addition, the growth inhibition call in the assay with S. aureus RN4220 was “inactive”.
Turning to `C[C@@H]1CN([C@H](C)CO)C(=O)Cc2cc(NC(=O)c3ccncc3)ccc2O[C@H]1CN(C)Cc1ccc(C(=O)O)cc1`, the cytotoxicity call in the assay with HSkMC and with HepG2 was “inactive” each time. Moreover, the growth inhibition call in the assay on S. aureus RN4220 was “inactive”.
For `C[C@H]1CN([C@@H](C)CO)C(=O)c2cccc(NC(=O)Nc3ccc(C(F)(F)F)cc3)c2O[C@@H]1CN(C)C(=O)Nc1ccc(C(F)(F)F)cc1`, the cytotoxicity call in the assay with HSkMC and in the assay on HepG2 was “active” throughout. In the assay with S. aureus RN4220, the growth inhibition call was “inactive”.
With `COc1ccc(NC(=O)N(C)C[C@@H]2Oc3ccc(NS(=O)(=O)c4c(C)noc4C)cc3CC(=O)N([C@@H](C)CO)C[C@@H]2C)cc1`, the cytotoxicity call in the assay on HSkMC and with HepG2 was “inactive” each time. Besides, the growth inhibition call in the assay with S. aureus RN4220 is “inactive”.
Turning to `COc1ccc(NC(=O)Nc2ccc3c(c2)CC(=O)N([C@H](C)CO)C[C@H](C)[C@H](CN(C)Cc2ccc(-c4ccccc4)cc2)O3)cc1`, in the assay with HSkMC, the cytotoxicity call is “inactive”. The cytotoxicity call with HepG2 was “active”. Also, the growth inhibition call in the assay on S. aureus RN4220 is “inactive”.
With `CNC[C@H]1Oc2ccc(NC(=O)Cn3cnnn3)cc2C(=O)N([C@@H](C)CO)C[C@@H]1C`, the cytotoxicity call in the assay on HSkMC and in the assay with HepG2 was “inactive” throughout. In addition, the growth inhibition call in the assay on S. aureus RN4220 was “inactive”.
Regarding `CC(N)C12CC3CC(CC(C3)C1)C2.Cl` (stereo not drawn), the cytotoxicity call in the assay with HSkMC and in the assay with HepG2 was “inactive” each time. The growth inhibition call with S. aureus RN4220 was “inactive”.
For the compound `CNC(=O)C[C@@H]1CC[C@@H]2[C@H](COC[C@@H](O)CN2C(=O)Nc2cccc(OC)c2)O1`, the cytotoxicity call in the assay on HSkMC and in the assay with HepG2 was “inactive” in each case. Also, the growth inhibition call in the assay on S. aureus RN4220 is “inactive”.
`Cc1ncc(C[n+]2csc(CCO)c2C)c(N)n1.Cl.[Cl-]`: the cytotoxicity call in the assay on HSkMC and in the assay with HepG2 was “inactive” throughout. The growth inhibition call in the assay with S. aureus RN4220 was “inactive”.
For `Cc1noc(C)c1NC(=O)Nc1ccc2c(c1)CC(=O)N([C@@H](C)CO)C[C@@H](C)[C@H](CN(C)C(=O)Nc1ccc(C(F)(F)F)cc1)O2`, the cytotoxicity call in the assay on HSkMC and with HepG2 was “inactive” throughout. Besides, in the assay with S. aureus RN4220, the growth inhibition call is “inactive”.
On to `Cc1noc(C)c1S(=O)(=O)Nc1ccc2c(c1)CC(=O)N([C@@H](C)CO)C[C@H](C)[C@H](CN(C)C(=O)NC1CCCCC1)O2`, for which the cytotoxicity call with HSkMC and in the assay with HepG2 was “inactive” throughout. In the assay on S. aureus RN4220, the growth inhibition call was “inactive”.
On to `C[C@@H]1CN([C@H](C)CO)C(=O)c2cccc(NC(=O)Nc3cccc4ccccc34)c2O[C@@H]1CN(C)S(=O)(=O)c1ccc(F)cc1`, for which the cytotoxicity call in the assay with HSkMC and in the assay with HepG2 was “inactive” throughout. The growth inhibition call in the assay on S. aureus RN4220 is “inactive”.
Take `Nc1ncnc2c1ncn2[C@@H]1O[C@@H]2CO[P@@](=O)(S)O[C@@H]3[C@H](O)[C@@H](CO[P@@](=O)(S)O[C@H]2[C@H]1O)O[C@H]3n1cnc2c(N)ncnc21`: the cytotoxicity call with HSkMC and in the assay on HepG2 was “inactive” in each case. In addition, the growth inhibition call in the assay on S. aureus RN4220 is “inactive”.
`C[C@@H]1CCCCO[C@H](CN(C)C(=O)NC2CCCCC2)[C@H](C)CN([C@H](C)CO)C(=O)c2cc(NC(=O)c3ccccc3)ccc2O1`: the cytotoxicity call in the assay with HSkMC and in the assay on HepG2 was “inactive” throughout. In addition, the growth inhibition call in the assay on S. aureus RN4220 was “inactive”.
`COC[C@H](O)CNNC(=O)OC(C)(C)C`: the cytotoxicity call in the assay on HSkMC and in the assay with HepG2 was “inactive” throughout. Besides, the growth inhibition call in the assay with S. aureus RN4220 was “inactive”.
As for `C[C@H](CO)N1C[C@H](C)[C@@H](CN(C)C(=O)C2CCCCC2)Oc2cc(C#CCN(C)C)ccc2S1(=O)=O`, the cytotoxicity call in the assay on HSkMC and in the assay on HepG2 was “inactive” in each case. In addition, in the assay on S. aureus RN4220, the growth inhibition call is “inactive”.
In the case of `Cc1noc(C)c1NC(=O)Nc1cccc2c1O[C@@H](CN(C)Cc1ccc(C(F)(F)F)cc1)[C@H](C)CN([C@@H](C)CO)C2=O`, the cytotoxicity call in the assay on HSkMC and with HepG2 was “inactive” each time. For the same compound, in the assay with S. aureus RN4220, the growth inhibition call was “inactive”.
As for `C[C@@H]1CN([C@@H](C)CO)S(=O)(=O)c2ccc(C#CC(C)(C)O)cc2O[C@H]1CN(C)Cc1ccccc1`, the cytotoxicity call with HSkMC and in the assay with HepG2 was “inactive” throughout. Further, the growth inhibition call in the assay on S. aureus RN4220 was “inactive”.
With `Cc1noc(C)c1S(=O)(=O)Nc1cccc2c1O[C@@H](CN(C)C(=O)NC(C)C)[C@@H](C)CN([C@H](C)CO)C2=O`, the cytotoxicity call with HSkMC and in the assay on HepG2 was “inactive” throughout. Besides, the growth inhibition call in the assay with S. aureus RN4220 is “inactive”.
Regarding `C[C@H](CO)N1C[C@H](C)[C@@H](CN(C)C(=O)Nc2cccc3ccccc23)OCCCC[C@H](C)Oc2ccc(NC(=O)C3CCCCC3)cc2C1=O`, the cytotoxicity call in the assay with HSkMC and in the assay on HepG2 was “inactive” in each case. Further, the growth inhibition call in the assay on S. aureus RN4220 was “inactive”.
Take `CC(C)NC(=O)N(C)C[C@@H]1Oc2c(NS(=O)(=O)c3cccs3)cccc2C(=O)N([C@@H](C)CO)C[C@H]1C`: the cytotoxicity call with HSkMC and in the assay on HepG2 was “inactive” throughout. The growth inhibition call in the assay on S. aureus RN4220 was “inactive”.
Turning to `NC(=O)c1cnccn1`, the cytotoxicity call with HSkMC and in the assay with HepG2 was “inactive” each time. For the same compound, the growth inhibition call in the assay on S. aureus RN4220 was “inactive”.
Consider `C[C@H](NC(=O)C[C@@H]1C[C@@H]2c3cc(NC(=O)Nc4ccc(C(F)(F)F)cc4)ccc3O[C@@H]2[C@H](CO)O1)c1ccccc1`, for which the cytotoxicity call in the assay with HSkMC and in the assay on HepG2 was “inactive” in each case. Besides, the growth inhibition call in the assay with S. aureus RN4220 was “inactive”.
Turning to `COCC(=O)N1C[C@H](C)[C@H](OC)CN(C)C(=O)c2ccc(NC(=O)Nc3cccc(F)c3)cc2OC[C@@H]1C`, the cytotoxicity call in the assay on HSkMC (human skeletal muscle cells) and with HepG2 was “inactive” each time. Also, in the assay with S. aureus RN4220, the growth inhibition call is “inactive”.
